Results reported in the supplement of paper PMC8728848.
The other results are listed elsewhere or left out.

Assays:
Assay in all cases: glycan array binding signal (z-score within array); higher = stronger binding
Details in all cases: glycan notation: IUPAC condensed, linker removed
[1] = molecular target: Neu5Ac(a2-3)Gal(b1-4)GlcNAc(b1-2)Man(a1-3)[Neu5Ac(a2-6)Gal(b1-4)GlcNAc(b1-2)Man(a1-6)]Man(b1-4)GlcNAc(b1-4)GlcNAc
In short: (§1)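 The binding signal is a Z-score computed within each array. Data were drawn from 3228 arrays in the Consortium for Functional Glycomics database, restricted to those with a known protein sequence. Scores were averaged over arrays of the same protein sequence at different concentrations or buffers, and over linkers, and negative values can be taken as non-binding.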

[2] = molecular target: Neu5Ac(a2-3)Gal(b1-4)GlcNAc(b1-2)[Neu5Ac(a2-3)Gal(b1-4)GlcNAc(b1-4)]Man(a1-3)[GlcNAc(b1-4)][Neu5Ac(a2-3)Gal(b1-4)GlcNAc(b1-2)[Neu5Ac(a2-3)Gal(b1-4)GlcNAc(b1-6)]Man(a1-6)]Man(b1-4)GlcNAc(b1-4)GlcNAc
In short: as §1

[3] = molecular target: Neu5Ac(a2-3)Gal(b1-4)GlcNAc(b1-2)[Neu5Ac(a2-3)Gal(b1-4)GlcNAc(b1-4)]Man(a1-3)[GlcNAc(b1-4)][Neu5Ac(a2-3)Gal(b1-4)GlcNAc(b1-4)Man(a1-6)]Man(b1-4)GlcNAc(b1-4)GlcNAc
In short: as §1

[4] = molecular target: Neu5Ac(a2-3)Gal(b1-4)GlcNAc(b1-2)[Neu5Ac(a2-3)Gal(b1-4)GlcNAc(b1-6)]Man(a1-6)[Neu5Ac(a2-3)Gal(b1-4)GlcNAc(b1-2)Man(a1-3)][GlcNAc(b1-4)]Man(b1-4)GlcNAc(b1-4)GlcNAc
In short: as §1

[5] = molecular target: Neu5Ac(a2-3)Gal(b1-4)GlcNAc(b1-3)Gal
In short: as §1

[6] = molecular target: Neu5Ac(a2-3)Gal(b1-4)GlcNAc(b1-3)Gal(b1-3)GlcNAc
In short: as §1

[7] = molecular target: Neu5Ac(a2-3)Gal(b1-4)GlcNAc(b1-3)Gal(b1-4)GlcNAc
In short: as §1

[8] = molecular target: Neu5Ac(a2-3)Gal(b1-4)GlcNAc(b1-3)Gal(b1-4)GlcNAc(b1-2)Man(a1-3)[Neu5Ac(a2-3)Gal(b1-4)GlcNAc(b1-3)Gal(b1-4)GlcNAc(b1-2)Man(a1-6)]Man(b1-4)GlcNAc(b1-4)GlcNAc
In short: as §1

[9] = molecular target: Neu5Ac(a2-3)Gal(b1-4)GlcNAc(b1-3)Gal(b1-4)GlcNAc(b1-3)Gal(b1-4)GlcNAc
In short: as §1

[10] = molecular target: Neu5Ac(a2-3)Gal(b1-4)GlcNAc(b1-3)Gal(b1-4)GlcNAc(b1-3)Gal(b1-4)GlcNAc(b1-2)Man(a1-3)[Neu5Ac(a2-3)Gal(b1-4)GlcNAc(b1-3)Gal(b1-4)GlcNAc(b1-3)Gal(b1-4)GlcNAc(b1-2)Man(a1-6)]GalNAc
In short: as §1

[11] = molecular target: Neu5Ac(a2-3)Gal(b1-4)GlcNAc(b1-3)Gal(b1-4)GlcNAc(b1-3)GalNAc
In short: as §1

[12] = molecular target: Neu5Ac(a2-3)Gal(b1-4)GlcNAc(b1-3)Gal(b1-4)GlcNAc(b1-3)[Neu5Ac(a2-3)Gal(b1-4)GlcNAc(b1-3)Gal(b1-4)GlcNAc(b1-6)]GalNAc
In short: as §1

[13] = molecular target: Neu5Ac(a2-3)Gal(b1-4)GlcNAc(b1-3)Gal(b1-4)GlcNAc(b1-6)[Gal(b1-3)]GalNAc
In short: as §1

[14] = molecular target: Neu5Ac(a2-3)Gal(b1-4)GlcNAc(b1-3)Gal(b1-4)[Fuc(a1-3)]GlcNAc
In short: as §1

[15] = molecular target: Neu5Ac(a2-3)Gal(b1-4)GlcNAc(b1-3)GalNAc
In short: as §1

[16] = molecular target: Neu5Ac(a2-3)Gal(b1-4)GlcNAc(b1-3)[Neu5Ac(a2-3)Gal(b1-4)GlcNAc(b1-6)]GalNAc
In short: as §1

[17] = molecular target: Neu5Ac(a2-3)Gal(b1-4)GlcNAc(b1-6)GalNAc
In short: as §1

[18] = molecular target: Neu5Ac(a2-3)Gal(b1-4)GlcNAc(b1-6)[Gal(b1-3)]GalNAc
In short: as §1

[19] = molecular target: Neu5Ac(a2-3)Gal(b1-4)GlcNAc(b1-6)[Neu5Ac(a2-3)Gal(b1-3)]GalNAc
In short: as §1

[20] = molecular target: Neu5Ac(a2-3)Gal(b1-4)GlcNAc6S
In short: as §1

[21] = molecular target: Neu5Ac(a2-3)Gal(b1-4)[Fuc(a1-3)]GlcNAc
In short: as §1

[22] = molecular target: Neu5Ac(a2-3)Gal(b1-4)[Fuc(a1-3)]GlcNAc(b1-2)Man
In short: as §1

B1: BTL (Bryothamnion triquetrum) (protein)
chain: ADPICGSSGYSCTTPAILTPKSPGSFPSGYSKVIVTGVGGSYSVYIHRPDGFKVYKASEGGCASFGSYSGGGNSEVGKYGSGGTVVAVACK
[1]
  glycan array binding signal (z-score): -0.243
[2]
  glycan array binding signal (z-score): -0.214
[3]
  glycan array binding signal (z-score): -0.251
[4]
  glycan array binding signal (z-score): -0.271
[5]
  glycan array binding signal (z-score): -0.266
[6]
  glycan array binding signal (z-score): -0.25
[7]
  glycan array binding signal (z-score): -0.232
[8]
  glycan array binding signal (z-score): -0.197
[9]
  glycan array binding signal (z-score): -0.312
[10]
  glycan array binding signal (z-score): -0.145
[11]
  glycan array binding signal (z-score): -0.183
[12]
  glycan array binding signal (z-score): -0.207
[13]
  glycan array binding signal (z-score): -0.195
[14]
  glycan array binding signal (z-score): -0.216
[15]
  glycan array binding signal (z-score): -0.235
[16]
  glycan array binding signal (z-score): -0.188
[17]
  glycan array binding signal (z-score): -0.284
[18]
  glycan array binding signal (z-score): -0.212
[19]
  glycan array binding signal (z-score): -0.271
[20]
  glycan array binding signal (z-score): -0.16
[21]
  glycan array binding signal (z-score): -0.275
[22]
  glycan array binding signal (z-score): -0.28
